Structures can show the parent of a compound that is named as a salt. The whole screen tested about 1,300 compounds, of which about 40 (3%) showed activity. This is one part of the list.
Tested on: Plasmodium falciparum NF54/iGP1_RE9H ulg8 stage V gametocytes
Assay: gametocyte viability (luciferase signal relative to DMSO control) (% of DMSO control); higher = less gametocytocidal activity, active = 50 or less
Details: exposure time: 72 h
Summary of the method: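 In 96-well plates holding nanolitre spots of compound (10 mM DMSO stocks), NF54/iGP1_RE9Hulg8 stage V gametocytes from day 12 were added at ~2.5% gametocytemia and 3% hematocrit in medium with 0.5% Albumax II, giving single wells at 10 µM or 1 µM. Incubation lasted 72 h at 37 °C. Each 90 µl sample then received 10 µl D-luciferin (30 mg/ml) before luminescence reading on an IVIS Lumina II, and viability was normalized to the mean of DMSO vehicle wells on the same plate.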

SMILES	gametocyte viability (concentration: 1 µM)	gametocyte viability (concentration: 10 µM)
Cc1cnc(NC(=O)C2=C(O)c3ccccc3S(=O)(=O)N2C)s1 [Meloxicam]	inactive: 81.5	inactive: 79.9
O=C(O)COC(=O)Cc1ccccc1Nc1c(Cl)cccc1Cl [Aceclofenac]	inactive: 85.9	inactive: 87.7
Cc1nnc(NS(=O)(=O)c2ccc(N)cc2)s1 [Sulfamethizole]	inactive: 77	inactive: 84.6
CCN1CCN(c2cc3c(cc2F)c(=O)c(C(=O)O)cn3C2CC2)CC1 [Enrofloxacin]	inactive: 83	inactive: 84.3
CCN1CCC[C@H]1CNC(=O)c1c(OC)ccc(Br)c1OC [Remoxipride Hydrochloride]	inactive: 90.6	inactive: 88
CC1CC(OC(=O)C(O)c2ccccc2)CC(C)(C)N1C (configuration not stated) [Eucatropine hydrochloride]	inactive: 85.2	inactive: 90.2
CN(C)CCOc1ccc(/C(=C(/CCCl)c2ccccc2)c2ccccc2)cc1 [Toremifene]	inactive: 84.6	inactive: 84.4
CCN1CCN(C(=O)N[C@@H](C(=O)N[C@@H]2C(=O)N3C(C(=O)O)=C(CSc4nnnn4C)CS[C@H]23)c2ccc(O)cc2)C(=O)C1=O [Cefoperazone dihydrate]	inactive: 79.3	inactive: 83.8
C=C1/C(=C\C=C2/CCC[C@]3(C)[C@@H]([C@H](C)/C=C/[C@@H](O)C4CC4)CC[C@@H]23)C[C@@H](O)C[C@@H]1O [Calcipotriene]	inactive: 79.2	inactive: 64.3
Cc1ccc(Cl)c(Nc2ccccc2C(=O)O)c1Cl [Meclofenamic acid sodium salt monohydrate]	inactive: 84.6	inactive: 83.3
O=C(NCCO[N+](=O)[O-])c1cccnc1 [Nicorandil]	inactive: 90.5	inactive: 89.6
COC(=O)Nc1nc2ccc(SC(C)C)cc2[nH]1 [Methiazole]	inactive: 79.3	inactive: 85.9
CC1=Nc2ccc(Cl)cc2S(=O)(=O)N1 [Diazoxide]	inactive: 86.1	inactive: 84
Oc1ccc(OCc2ccccc2)cc1 [Monobenzone]	inactive: 95.8	inactive: 80.5
C[C@H]1C[C@H]2[C@@H]3CCC4=CC(=O)C=C[C@]4(C)[C@@]3(F)[C@@H](O)C[C@]2(C)[C@@]1(O)C(=O)CO [Betamethasone]	inactive: 94.9	inactive: 82.8
O=C(O)/C=C/c1ccc(Cn2ccnc2)cc1 [Ozagrel hydrochloride]	inactive: 97.5	inactive: 92.7
CCCc1nc(C)c2c(=O)nc(-c3cc(S(=O)(=O)N4CCN(CC)CC4)ccc3OCC)[nH]n12 [Vardenafil]	inactive: 70.1	active: 43.9
CCn1nc(C(=O)O)c(=O)c2cc3c(cc21)OCO3 [Cinoxacin]	inactive: 97.4	inactive: 95.3
Cc1cc(/C=C/c2ccc3cc(N(C)C)ccc3[n+]2C)c(C)n1-c1ccccc1 [Pyrvinium pamoate]	inactive: 83	inactive: 57.4

SMILES	gametocyte viability (concentration: 1 µM)	gametocyte viability (concentration: 10 µM)
CCCCNc1ccc(C(=O)OCCOCCOCCOCCOCCOCCOCCOCCOCCOC)cc1 [Benzonatate]	inactive: 95.9	inactive: 96.6
COCCOC(=O)C1=C(C)NC(C)=C(C(=O)OC/C=C/c2ccccc2)C1c1cccc([N+](=O)[O-])c1 (configuration not stated) [Cilnidipine]	inactive: 89.1	inactive: 81
CC[C@H]1OC(=O)[C@H](C)[C@@H](O[C@H]2C[C@@](C)(OC)[C@@H](O)[C@H](C)O2)[C@H](C)[C@@H](O[C@@H]2O[C@H](C)C[C@H](N(C)C)[C@H]2O)[C@](C)(O)C[C@@H](C)[C@@H]2N[C@@H](COCCOC)O[C@H]([C@H]2C)[C@]1(C)O [Dirithromycin]	inactive: 84.4	inactive: 87
O=C1CC2(CCCC2)CC(=O)N1CCCCN1CCN(c2ncccn2)CC1 [Buspirone hydrochloride]	inactive: 83.9	inactive: 65.7
C[C@H](O)C(=O)Nc1c(I)c(C(=O)NC(CO)CO)c(I)c(C(=O)NC(CO)CO)c1I [Iopamidol]	inactive: 87.1	inactive: 87.1
CC(C)CC(=O)N[C@H](C(=O)N[C@H](C(=O)N[C@@H](CC(C)C)[C@@H](O)CC(=O)N[C@@H](C)C(=O)N[C@@H](CC(C)C)[C@@H](O)CC(=O)O)C(C)C)C(C)C [Pepstatin A]	inactive: 81.2	inactive: 84.5
CC1Cc2ccccc2N1NC(=O)c1ccc(Cl)c(S(N)(=O)=O)c1 (configuration not stated) [Indapamide]	inactive: 84.6	inactive: 87.5
Nc1ccc(S(=O)(=O)Nc2ccnn2-c2ccccc2)cc1 [Sulfaphenazole]	inactive: 86.3	inactive: 87.1
O=C(NCC(O)CO)c1c(I)c(C(=O)NCC(O)CO)c(I)c(N(CCO)C(=O)CO)c1I (configuration not stated) [Ioversol]	inactive: 87.9	inactive: 56.7
CO/N=C(\C(=O)N[C@@H]1C(=O)N2C(C(=O)O)=C(COC(N)=O)CS[C@H]12)c1ccco1 [Cefuroxime sodium salt]	inactive: 94.7	inactive: 93.2
Cc1cc(CC(=O)O)n(C)c1C(=O)c1ccc(Cl)cc1 [Zomepirac sodium salt]	inactive: 88.2	inactive: 91.8
COc1ccc(C2CNC(=O)C2)cc1OC1CCCC1 (configuration not stated) [Rolipram]	inactive: 89.7	inactive: 92
O=C1OCCN1/N=C/c1ccc([N+](=O)[O-])o1 [Furazolidone]	inactive: 86.6	inactive: 89.3
O=S(=O)(O)c1cc(O)ccc1O [Ethamsylate]	inactive: 93.1	inactive: 95.7
CCC(=O)O[C@]1(C(=O)CCl)[C@@H](C)C[C@H]2[C@@H]3CCC4=CC(=O)C=C[C@]4(C)[C@@]3(F)[C@@H](O)C[C@@]21C [Clobetasol propionate]	inactive: 95.1	inactive: 88.8
c1ccc([C@H]2CN3CCSC3=N2)cc1 [Levamisole hydrochloride]	inactive: 84.2	inactive: 81.4
CC(C)NCC(O)c1ccc2ccccc2c1 (configuration not stated) [Pronethalol hydrochloride]	inactive: 90	inactive: 89.8
Nc1nc2n[nH]nc2c(=O)[nH]1 [Azaguanine-8]	inactive: 95	inactive: 97.8
CN(C)c1nc(N(C)C)nc(N(C)C)n1 [Altretamine]	inactive: 90.8	inactive: 91.3

SMILES	gametocyte viability (concentration: 1 µM)	gametocyte viability (concentration: 10 µM)
CCCNCC(O)COc1ccccc1C(=O)CCc1ccccc1 (configuration not stated) [Propafenone hydrochloride]	inactive: 81.6	inactive: 75.7
NC(=O)C(c1ccccc1)(c1ccccc1)[C@@H]1CCN(CCc2ccc3c(c2)CCO3)C1 [Darifenacin hydrobromide]	inactive: 81.7	inactive: 84.2
COc1cc([C@@H]2c3cc4c(cc3[C@@H](O[C@@H]3O[C@@H]5CO[C@@H](C)O[C@H]5[C@H](O)[C@H]3O)[C@H]3COC(=O)[C@H]23)OCO4)cc(OC)c1O [Etoposide]	inactive: 84.9	inactive: 91
COc1ccccc1OCC(O)CN1CCN(CC(=O)Nc2c(C)cccc2C)CC1 (configuration not stated) [Ranolazine]	inactive: 88.9	inactive: 78.4
C[C@H]1C[C@@H]2[C@H]([C@@H](O)C[C@@]3(C)[C@H]2CC[C@]3(O)C(=O)CO)[C@@]2(C)C=CC(=O)C=C12 [Methylprednisolone, 6-alpha]	inactive: 84.3	inactive: 79.2
CNCC(O)c1ccc(OC(=O)C(C)(C)C)c(OC(=O)C(C)(C)C)c1 (configuration not stated) [Dipivefrin hydrochloride]	inactive: 85.8	inactive: 89.3
CC(C)NCC(O)c1ccc(O)c(O)c1 (single isomer, unassigned; (+)) [(+)-Isoproterenol (+)-bitartrate salt]	inactive: 100	inactive: 97.8
CCN(CC)CCc1nc(-c2ccccc2)no1 [Oxalamine citrate salt]	inactive: 98.8	inactive: 89.9
CC(C)NC[C@@H](O)COc1cccc2ccccc12 [(R)-Propranolol hydrochloride]	inactive: 93.4	inactive: 89
Cc1c(N(C)CS(=O)(=O)O)c(=O)n(-c2ccccc2)n1C [Dipyrone]	inactive: 82.8	inactive: 85.5
CC(NCCC(c1ccccc1)c1ccccc1)c1ccccc1 (configuration not stated) [Fendiline hydrochloride]	inactive: 90	inactive: 83.2
O=c1[nH]c(=O)n(C2CCCO2)cc1F (configuration not stated) [Tegafur]	inactive: 82.6	inactive: 82.6
CN1CCN(c2c(F)cc3c(=O)c(C(=O)O)cn(CCF)c3c2F)CC1 [Fleroxacin]	inactive: 85.4	inactive: 89.8
C[C@H](CCC(=O)O)[C@H]1CC[C@H]2[C@@H]3[C@H](O)C[C@@H]4C[C@H](O)CC[C@]4(C)[C@H]3CC[C@]12C [Chenodiol]	inactive: 83.3	inactive: 82.6
NNc1nncc2ccccc12 [Hydralazine hydrochloride]	inactive: 94.8	active: 12.8
CC(=O)OCC(CCn1cnc2cnc(N)nc21)COC(C)=O [Famciclovir]	inactive: 84	inactive: 80.3
COc1c2occc2c(OC)c2c(=O)cc(C)oc12 [Khellin]	inactive: 92	inactive: 94.7
CC[C@H](C)C(=O)O[C@H]1CCC=C2C=C[C@H](C)[C@H](CC[C@@H]3C[C@@H](O)CC(=O)O3)[C@H]21 [Mevastatin]	inactive: 85.9	inactive: 86.7

From the supplement of paper PMC12297408
